Results published in a compilation of properties of binary mixtures (doi:10.1021/je00044a019).
The densities may have been worked out from excess volumes.

Assay: xn = mol fraction of the nth substance listed
Conditions: 101.3 kPa

[Cl][Cu] + CC[n+]1ccn(C)c1.[Cl-]
mass density [kg/m3]
Conditions	298.15 K	303.15 K	308.15 K	313.15 K	318.15 K	323.15 K
x1 = 0.332	1364.5	1360.7	1356.9	1353.1	1349.3	–
x1 = 0.4	–	1380.5	1376.3	1372	1367.8	1363.6
x1 = 0.498	1515.3	1509.9	1504.5	–	1493.7	1488.3
x1 = 0.604	1689.5	1684.1	–	1673.4	1668.1	1662.7
x1 = 0.666	1873.1	1866.9	–	1854.5	1848.3	1842.1
